Data reported in patent US5968751A, “Method for detecting the presence of protein C antibody in a fluid sample” (The Scripps Research Institute, priority 1997, dated 1999).
Not every detail of the peptide structures is certain; ends, links or a residue may be inferred. For part of these data: At least one read-out could not be matched to a standard name with certainty.

Legend:
APC [1] = target: T1, APC (Homo sapiens, UniProt P04070); test: Xa-1-stage coagulation assay, inhibition of APC anticoagulant activity; format: biochemical; parameters: Protein C consists of a 155 amino acid residue light chain and a 262 amino acid residue heavy chain; from tissue; host or cells: human plasma factor IX concentrate; conditions: Xa-1-stage assay in protein S-depleted plasma; read-out: 50% inhibition of APC anticoagulant activity
Method: For testing the inhibition of the synthetic peptides on APC activity described above, Xa-1-stage coagulation assays were also performed as described. See Seegers et al., Thrombosis Res., 13:233-243 (1978); Marlar et al., supra; and Walker et al., J. Biol. Chem., 265:1484-1489 (1990). PC heavy chain-derived peptides listed below in Table 6 and PC light chain-derived peptides listed below in Table 7 were prepared as described above and separately admixed for a final concentration of 2 mM with 120 nM APC in 100 μl of TBS-BSA at pH 7.4 to form separate peptide-APC admixtures. The resulting admixtures were maintained for ten minutes at 37° C. Separate aliquots of peptides maintained under the same conditions in the absence of APC served as controls for the inhibitory effect of synthetic peptides on APC anticoagulant activity. […]
The time for clot formation was measured by an Electra 700 Automatic Coagulation Timer (Medical Laboratory Automation, Inc., Mount Vernon, N.Y.). Each peptide's effect was determined in duplicate. The results of the inhibition of APC anticoagulant activity by synthetic peptides as measured in Xa-1-stage coagulation assays are presented in Tables 6 and 7 below with the APTT assay results and are presented as the mean values obtained with APTT assays. […]

APC [2] = target: T1, APC; test: amidolytic activity of APC towards S-2366; format: biochemical; parameters: Protein C consists of a 155 amino acid residue light chain and a 262 amino acid residue heavy chain; from tissue; host or cells: human plasma factor IX concentrate
Method: The amidolytic activity of APC toward the peptide substrate S-2366 was measured in the presence of various PC synthetic peptides derived from both the heavy and light chain, prepared in Example 1. For the assay, 100 μl of 10 nM APC, prepared in Example 2c2), were admixed with separate aliquots of 250 μM of PC311-325 and 500 μM Df PC142-155 prepared in TBS-BSA at pH 7.4 containing 0.02% NaN3 and 2 mM CaCl2 to form APC-peptide admixtures. After maintenance of the admixtures for 30 minutes at 37° C., 50 μl of 2.4 mM S-2366 in the same buffer were admixed to initiate the amidolytic reaction. The hydrolysis of the substrate was monitored by the change in absorbance at 405 nm at 37° C. over time using an EL312 Microplate Bio-Kinetics Reader (BIO-TEK Instruments, Inc. Vermont.). All data are mean values of duplicate measurements.
The amidolytic activity of APC toward the peptide substrate S-2366 was measured in the presence of anti-PC317-331 antibody. […] The hydrolysis of the substrate was monitored by the change in absorbance at 405 nm over time using an EL312 Microplate Bio-Kinetics Reader (BIO-TEK Instruments, Inc. Vermont.).

T1 sequence (P04070 43-197 limits assumed): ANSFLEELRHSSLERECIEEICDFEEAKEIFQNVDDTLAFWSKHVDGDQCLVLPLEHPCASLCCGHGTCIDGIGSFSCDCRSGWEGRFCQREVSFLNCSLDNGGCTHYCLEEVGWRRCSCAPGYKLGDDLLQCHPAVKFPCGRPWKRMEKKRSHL
T1 sequence (P04070 212-450 limits assumed): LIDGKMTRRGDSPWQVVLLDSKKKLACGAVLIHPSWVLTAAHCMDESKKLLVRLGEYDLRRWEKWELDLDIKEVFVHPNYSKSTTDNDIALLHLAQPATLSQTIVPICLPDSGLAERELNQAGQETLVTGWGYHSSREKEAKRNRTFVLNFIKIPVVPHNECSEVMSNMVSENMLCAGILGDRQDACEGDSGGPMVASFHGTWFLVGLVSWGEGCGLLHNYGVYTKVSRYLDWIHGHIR

## CSCC[C@H](NC(=O)[C@H](CCCNC(=N)N)NC(=O)[C@H](CCCCN)NC(=O)[C@H](Cc1c[nH]c2ccccc12)NC(=O)[C@@H]1CCCN1C(=O)[C@H](CCCNC(=N)N)NC(=O)CN)C(=O)N[C@@H](CCC(=O)O)C(=O)N[C@@H](CCCCN)C(=O)N[C@@H](CCCCN)C(=O)N[C@@H](CCCNC(=N)N)C(=O)N[C@@H](CO)C(=O)N[C@@H](Cc1c[nH]cn1)C(=O)N[C@@H](CC(C)C)C(=O)N[C@@H](CS)C(N)=O [PC142-155, Gly-Arg-Pro-Trp-Lys-Arg-Met-Glu-Lys-Lys-Arg-Ser-His-Leu]
APC [1]
  IC50: 5 µM
APC [2]; 10 nM APC, 250 μM PC311-325, 500 μM PC142-155, 30 minutes at 37° C., S-2366
  Change in A405 /5 minutes: 0.344
APC [2]; up to 250 μM PC311-325 or 500 μM PC142-155, 30 min at 37° C.
  effect on APC amidolytic activity towards S-2366: no significant effect
